Screen size: about 48,000 compounds; about 450 (0.94%) were called active. Not shown: some 19% with an inconclusive outcome. Calls follow the shape of the dose curve; as a rule, active = well fitted inhibition curve with a large enough effect; inconclusive = small, poorly fitted or top-dose-only effect; inactive = no such curve, though single readings can be large or run the other way. This is one part of the list.
Assay: Primary qHTS for Identification of Small Molecule Inhibitors of Huntingtin Promoter Activity; also: nearly all actives have a fitted effect of over 50% in size
Conditions: HEK293 HTT promoter firefly luciferase reporter (activity 0% = vehicle and -100% = no light), 24 h; series mostly up to 57.5 µM; activity change, negative = inhibition: at the top concentration
Method in brief: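 HEK293 luciferase promoter-reporter cells (2,500/well) plated 24 h, then compounds added at up to 57.5 uM final for 24 h at 37 °C. Firefly luminescence by Dual-Glo, normalized to vehicle (0%) and zero RLU (-100%).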
Potency is read from the fitted curve at half-maximal effect.

| Structure (SMILES) | activity change, negative = inhibition | Potency |
| --- | --- | --- |
| O=C(NCC(c1ccc2c(c1)OCO2)N1CCN(c2ccccc2)CC1)c1ccccc1F (stereo not given) | inactive: 25.1% |  |
| Cc1ccc(-c2cc(N)n3nc(-c4ccc(C)cc4)cc3n2)cc1 | inactive: -11.2% |  |
| CCOC(=O)c1noc2ncnc(N(CCC(=O)OC)c3ccccc3)c12 | inactive: -27.5% |  |
| CCOC(=O)c1noc2ncnc(Nc3ccc(C)c(F)c3)c12 | inactive: 3.61% |  |
| CN1CCN(CCCNC(=O)Cn2c(-c3cccs3)cc3ccccc32)CC1 | inactive: -18.1% |  |
| Cc1ccc2c(c1)sc1nc(=O)n(-c3ccc(Cl)cc3)c(=O)n12 | inactive: -5.45% |  |
| O=C(Cn1cc(SCc2ccc(C(F)(F)F)cc2)c2ccccc21)N1CCCCC1 | inactive: -28.3% |  |
| CCc1cccc2c(-c3ccccc3)nc(SCC(=O)Nc3ccccc3)nc12 | inactive: 5.13% |  |
| COc1ccc2c(CNCc3ccc(Cl)cc3)c(C(=O)O)n(Cc3ccccc3C)c2c1 | inactive: -23.9% |  |
| COc1ccc(-c2cc(C)no2)cc1S(=O)(=O)NCc1ccc(OC(C)C)cc1 | inactive: -28.4% |  |
| CC(=O)c1ccc(N2CCN(c3nc4c(S(=O)(=O)c5ccccc5)nnn4c4ccc(Cl)cc34)CC2)cc1 | inactive: -5.3% |  |
| Cc1cc(Br)ccc1NC(=O)c1cc2c(=O)n(C)c3cc(Cl)ccc3c2s1 | inactive: -5.04% |  |
| O=C(NC1CC(=O)N(c2ccccc2)C1)C1CCCCC1 (stereo not given) | inactive: -24% |  |
| COc1ccc(NC(=O)C2=C(C)Nc3nc(SCc4ccccc4C)nn3C2c2ccc(Br)cc2)cc1 (stereo not given) | inactive: -12% |  |
| Cc1cccc(NC(=O)C2CCN(S(=O)(=O)c3cccc4nsnc34)CC2)c1C | inactive: -0.26% |  |
| NCCCC[C@H](N[C@@H](CCc1ccccc1)C(=O)O)C(=O)N1CCC[C@H]1C(=O)O | inactive: 11.7% |  |
| CN(C(=O)c1cc(-c2ccccc2O)on1)c1ccccc1 | inactive: -12.6% [at 11.5 µM] |  |
| Cc1cc(C)c2oc(C(=O)N(Cc3ccc(F)cc3)C3CCS(=O)(=O)C3)cc(=O)c2c1 (stereo not given) | inactive: -9.36% |  |
| CSc1ccc(CCNc2ncnc3onc(C)c23)cc1 |  | active: 1000 nM |
| CCOC(=O)c1c(C)oc2ccc(N(C(=O)Oc3ccccc3)S(=O)(=O)c3ccccc3)cc12 | inactive: 0.877% |  |
| CCOc1ccc(/C=C(\C#N)c2nc(-c3cc4ccccc4oc3=O)cs2)c(OCC)c1 | inactive: 17.7% |  |
| CCN1CCN(C(c2ccc(OC)cc2)c2c(O)cc(C)n(CCOC)c2=O)CC1 (stereo not given) | inactive: -6.93% |  |
| COc1ccc(C(CNC(=O)COc2ccc(C)cc2)N2CCCCC2)cc1 (stereo not given) | inactive: -40.8% |  |
| COc1ccccc1NC(=O)c1c(NCc2sccc2C)sc2c1CCCCC2 | inactive: -4.89% |  |

| Structure (SMILES) | activity change, negative = inhibition | Potency |
| --- | --- | --- |
| CN(C(=O)Cn1c(=O)n(CCCS(=O)(=O)C2CCCCC2)c(=O)c2ccccc21)c1ccccc1 | inactive: -14.1% |  |
| COc1ccc2c(CNCc3ccc(C)o3)c(C(=O)O)n(Cc3ccccc3)c2c1 | inactive: -13.7% |  |
| CCOc1cc(-c2nc(-c3ccc(-c4ccc(C)cc4)nc3OC)no2)cc(OCC)c1OCC | inactive: -12.3% |  |
| Cc1cc(C)cc(N(CC(=O)Nc2cccc(C)c2C)S(=O)(=O)c2c(C)[nH]c(=O)[nH]c2=O)c1 | inactive: -16.3% [at 11.5 µM] |  |
| COc1ccc(Cl)cc1NC(=O)Cn1c2ncccc2c(=O)n1-c1ccc(C)c(C)c1 | inactive: -6.82% |  |
| COc1ccc(C2C=C(c3ccccc3)Nc3nc(NC(=O)c4ccc(C)cc4)nn32)cc1 (stereo not given) | inactive: -18.7% |  |
| COC(=O)c1ccc(Cl)cc1NC(=O)N1CC(C)Oc2ccccc21 (stereo not given) | inactive: -5.21% |  |
| Cc1cc(NS(=O)(=O)c2ccc(NC(=O)COc3ccc(Cl)cc3)cc2)nc(C)n1 | inactive: -11.6% |  |
| Cc1ccc(NC(=O)Nc2nnc(N(C)Cc3ccccc3)s2)cc1 | inactive: -1.16% |  |
| COc1ccccc1N1CCN(C(=O)Cn2ncc3c(=O)oc4ccccc4c32)CC1 | inactive: -4.07% |  |
| CC(=O)Nc1cccc(NC(=O)Cn2cnc3c2c(=O)n(C)c(=O)n3C)c1 | inactive: -1.53% |  |
| O=C(Nc1ccc(C(=O)OCc2cc(=O)n3nc(C4CC4)sc3n2)cc1)c1ccc(F)cc1 | inactive: -8.7% |  |
| Cc1nc(N2CCCC2)c2c(C(=O)Nc3cccc(C)c3C)c(C)oc2n1 | inactive: -8.14% |  |
| CCN(CC)c1ccc(NC(=O)C(Cc2ccccc2)NS(=O)(=O)c2ccc(Br)s2)c(C)c1 (stereo not given) | inactive: -9.14% |  |
| COc1ccc(CCNCc2c(C(=O)O)c(C)n(Cc3ccccc3C)c2C)c(OC)c1 | inactive: -21% |  |
| COc1ccc(S(=O)(=O)N(CC(=O)NCc2ccccc2OC)c2ccc(C)cc2)cc1 | inactive: -29.1% |  |
| CCOc1ccccc1N(C)C(=O)Cn1cnc2sc(C)c(S(=O)(=O)N3CCC(C)CC3)c2c1=O | inactive: -22.7% |  |
| COc1cc(OC)c(NC(=O)COCc2cc(-c3cccs3)on2)cc1Cl | inactive: -18.8% |  |
| CC(C)(C)NC[C@H](O)COc1nsnc1N1CCOCC1 | inactive: 6.63% |  |
| COc1ccccc1CCNC(=O)CCc1c(C)c2cc3c(C)coc3c(C)c2oc1=O | inactive: -6.05% |  |
| CN(C)CCN(Cc1ccco1)S(=O)(=O)c1cc2c(cc1Cl)NC(=O)CO2 | inactive: 7.67% |  |
| Cc1cn2c(=O)cc(COc3ccc(NC(=O)c4cccc(F)c4)cc3)nc2s1 | inactive: -17.1% |  |
| O=C(Cn1c(=O)n(Cc2ccco2)c(=O)c2oc3ccccc3c21)Nc1ccc(F)cc1F | inactive: -21% |  |
| Cc1nn(CCCC(=O)Nc2ccccc2C(F)(F)F)c(=O)c2c1sc1ccccc12 | inactive: -4.04% |  |

| Structure (SMILES) | activity change, negative = inhibition | Potency |
| --- | --- | --- |
| COc1cccc(NC(=O)Nc2cc(-c3cn4cccnc4n3)ccc2C)c1 | inactive: -17.5% |  |
| CCC(Sc1nnc(C)n2c1cc1occc12)C(=O)Nc1ccccc1F (stereo not given) | inactive: -2.95% |  |
| Cn1c(=O)n(C)c2cc(NS(=O)(=O)c3ccccc3)c(NCc3ccccc3)cc21 | inactive: 89.5% |  |
| O=C(NCCO)C(=O)Nc1c2c(nn1-c1ccc(F)cc1)CSC2 | inactive: -13.4% |  |
| CC(C)Oc1ccc(CNC(=O)C2CCN(C(=O)c3sccc3-n3cccc3)CC2)cc1 | inactive: -29.5% |  |
| Cc1ccc(-c2noc(CNC(=O)c3ccc(C(C)(C)C)cc3)n2)cc1 | inactive: -2.06% |  |
| COc1ccccc1CNC(=O)CN1C(=O)CSc2ccc(S(=O)(=O)N3CCCC3)cc21 | inactive: -8.02% |  |
| COCc1cc(C)n(CC(=O)Nc2ccc(NC(C)=O)cc2)c(=O)c1C#N | inactive: -11.1% |  |
| COc1ccc(N2CCN(c3cc(C)nc4nc(-c5ccc(C)cc5)nn34)CC2)cc1 | inactive: -11% |  |
| CC1=C(C#N)C(NC(=O)c2cccc(Cl)c2)(C(F)(F)F)C(=O)N1 (stereo not given) | inactive: -6.4% |  |
| Cc1ccc(Cl)cc1NC(=O)N1CCN(C)c2ncccc21 | inactive: -4.32% |  |
| CCc1cc2c(cc3c(=O)n(CC(=O)N4CCN(c5cc(Cl)ccc5C)CC4)ncn32)s1 | inactive: -1.64% |  |
| Cc1ccc(S(=O)(=O)c2cn(C)c3cc(N4CCN(C)CC4)c(F)cc3c2=O)cc1 | inactive: -12.1% |  |
| COc1ccccc1N1CCN(S(=O)(=O)c2c(C)sc3ncn(CC(=O)N(C)c4ccc(C(C)C)cc4)c(=O)c23)CC1 | inactive: -28.7% |  |
| CNS(=O)(=O)c1ccc(OC)c(-c2nnc3c4ccccc4c(C)nn23)c1 | inactive: -8.03% |  |
| Cc1ccc(C(=O)Nc2ccc3[nH]c(=O)c(=O)[nH]c3c2)cc1 | inactive: 1.93% |  |
| Cc1ccc(C2CCN(C(=O)Nc3ccc(C)c(C)c3)C2)cc1 (stereo not given) | inactive: 30.5% |  |
| O=c1c2c3c(sc2n(Cc2ccc(F)cc2Cl)c(=O)n1-c1ccc(Cl)cc1)CCC3 | inactive: 17.8% |  |
| CCOc1ccc2cc(-c3nnc(Nc4ccc(C)cc4)s3)c(=O)oc2c1 | inactive: 0.56% |  |
| Cc1ccccc1OCc1ccc(-c2nc(C#N)c(N3CCC(C(N)=O)CC3)o2)o1 | inactive: -28.8% |  |
| CCOc1ccc2c(c1)c(=O)c(S(=O)(=O)c1ccc(Cl)cc1)cn2Cc1ccccc1C | inactive: -18.4% |  |
| COc1cccc(Nc2nc3ccc(C(=O)c4ccccc4)cc3n3c(C)nnc23)c1 | inactive: -1.78% |  |
| COc1ccc(NC(=O)c2ccc(NC(=O)CCS(=O)(=O)c3cccs3)cc2)cc1 | inactive: 5.53% |  |
| O=C(Nc1ccc(Cl)c(-c2nc3cc(Cl)ccc3o2)c1)c1cc2ccccc2o1 | inactive: 0% |  |

| Structure (SMILES) | activity change, negative = inhibition | Potency |
| --- | --- | --- |
| Cc1ccccc1NS(=O)(=O)c1nnc(NC(=O)c2ccco2)s1 | inactive: -8.58% |  |
| CCOC(=O)c1c(S(=O)(=O)NCC(=O)N(C)c2ccc(C)cc2)c(C)n(C)c1C | inactive: -0.357% |  |
| Cc1ccc(C)c(CN2C(=O)c3ccccc3S(=O)c3ccc(C(=O)NCCC4=CCCCC4)cc32)c1 (stereo not given) | inactive: -27% |  |
| COc1ccc(CCC(=O)NCCc2csc(-c3cccc(C)c3)n2)cc1 | inactive: 0.849% |  |
| Cc1ccccc1-c1nc(SCC(=O)N(C)c2ccccc2)c2c(=O)n(C)c(=O)n(C)c2n1 | inactive: 31.6% |  |
| CCc1cccc(NC(=O)Cn2nc3c4cc(F)ccc4n(Cc4cccc(C)c4)cc-3c2=O)c1 | inactive: -11.1% |  |
| CCc1ccccc1N1C(=O)N(CC(=O)c2ccc(OC)cc2)c2ccccc2S1(=O)=O | inactive: -18.7% |  |
| CC(C)Oc1ccc(C(=O)Nc2nonc2-c2ccc(OC(C)C)cc2)cc1 | inactive: 0.588% |  |
| COC(=O)CCN(C(=O)C1CCN(S(=O)(=O)c2c(C)noc2/C=C/c2ccccc2F)CC1)c1ccccc1 | inactive: -22.3% |  |
| COc1cc(NC(=O)CC(c2cccs2)N2Cc3ccccc3C2=O)cc(OC)c1OC (stereo not given) | inactive: -8.57% |  |
| COc1ccc(NC(=O)C(=O)NCc2ccco2)cc1 | inactive: 41.6% |  |
| CCN(CCCNC(=O)Cn1ncc2c([nH]c3ccc(C)cc32)c1=O)Cc1ccccc1 | inactive: -1.8% |  |
| Clc1cccc(CSc2nnc(C3CCNCC3)o2)c1 | inactive: 3.13% |  |
| CC(C)n1c(=N)c(C(=O)NC2CCCCC2)cc2c(=O)n3ccccc3nc21 | inactive: -13.4% |  |
| CC(=O)c1ccc(NC(=O)Cn2nc(C(F)(F)F)c3c2CCCC3)cc1 | inactive: -16.4% |  |
| COc1cccc(CN(C(=O)c2cccc(C)c2)C2CCS(=O)(=O)C2)c1 (stereo not given) | inactive: -6.81% |  |
| COc1ccc(OC)c(-c2noc(N3CCN(c4cccc(C)c4C)CC3)n2)c1 | inactive: -29% |  |
| CC(N[C@H]1CCCC[C@H]1NC(=O)c1ccc(Cl)cc1)c1cccc2ccccc12 (stereo not given in full) | inactive: -17.8% |  |
| CCc1ccc(NC(=O)Cn2c(=O)n(-c3cc(C)cc(C)c3)c(=O)c3oc4ccccc4c32)cc1 | inactive: -4.7% |  |
| COC(=O)c1ccccc1NC(=O)C1=C(C)C(=O)OC12CCC(C)CC2 (stereo not given) | inactive: -17.8% |  |
| COC(=O)CC1Oc2ccc(C)cc2-n2cc(-c3ccc(C)cc3)nc21 (stereo not given) | inactive: -22.8% |  |
| Cc1ccc(CSc2oc(-c3cccs3)nc2S(=O)(=O)c2ccc(C)cc2)cc1 | inactive: -20.7% |  |
| Cc1ccc(-n2nc3c(=O)n(CCCC(=O)NC(C)c4ccccc4)nc(C)c3c2C)cc1 (stereo not given) | inactive: -19.3% |  |
